In the supplement of paper PMC7826260:
Some of the results follow. Cleavage of a single-stranded DNA pool by Rep nickase domains was read by sequencing (3 µM enzyme, 1 h, 37 °C); shown is the middle of each 90-letter strand. Numbers give uncut DNA relative to the enzyme-free pool, as log2; more negative means more cut, near 0 not cut, and no call is made. Because reads are shares of a total, they shift together; where an enzyme cuts many sequences, the uncut ones exceed 0.

Columns and labels:
Experiment in all cases: uncleaved DNA left, log2 of reads against the no-enzyme library (log2 ratio); higher = less cleavage (more negative = more Rep cleavage of the k-mer); sequences stand for … in CTCGTCCG…ACCGGAGA
[1] = test system: T1, Rep nickase domain of Muscovy duck circovirus
T1 sequence (Rep 1-111, printed without the tag): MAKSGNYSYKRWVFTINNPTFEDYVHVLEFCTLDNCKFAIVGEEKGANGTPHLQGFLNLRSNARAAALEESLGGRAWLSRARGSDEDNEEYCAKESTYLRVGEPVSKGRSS
Description: (§1)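 A pool of 90-nt single-stranded DNAs with seven random bases just before the constant AC of the nick site (name = the seven bases) was cut by 3 µM recombinant His6-SUMO-tagged Rep nickase domain (300 nM DNA, 50 mM HEPES pH 8.0, 50 mM NaCl, 1 mM MnCl2, 1 h, 37 °C, three replicates). Uncut DNA was amplified and sequenced.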

[2] = test system: T2, Rep nickase domain of banana bunchy top virus
T2 sequence (Rep 1-94, printed without the tag): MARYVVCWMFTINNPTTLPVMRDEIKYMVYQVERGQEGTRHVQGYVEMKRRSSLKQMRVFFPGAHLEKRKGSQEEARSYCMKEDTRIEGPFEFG
Description: as §1

[3] = test system: T3, Rep nickase domain of cabbage leaf curl virus
T3 sequence (Rep 1-116, printed without the tag): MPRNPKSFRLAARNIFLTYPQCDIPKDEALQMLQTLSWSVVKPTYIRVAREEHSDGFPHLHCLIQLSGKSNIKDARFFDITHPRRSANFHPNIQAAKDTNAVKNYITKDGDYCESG
Description: as §1

[4] = test system: T4, Rep nickase domain of chickpea chlorotic dwarf virus
T4 sequence (Rep 1-124, printed without the tag): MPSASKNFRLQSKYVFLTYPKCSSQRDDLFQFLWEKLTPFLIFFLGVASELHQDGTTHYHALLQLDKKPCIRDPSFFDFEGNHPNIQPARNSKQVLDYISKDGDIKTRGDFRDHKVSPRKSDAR
Description: as §1

[5] = test system: T5, Rep nickase domain of faba bean necrotic yellows virus
T5 sequence (Rep 1-98, printed without the tag): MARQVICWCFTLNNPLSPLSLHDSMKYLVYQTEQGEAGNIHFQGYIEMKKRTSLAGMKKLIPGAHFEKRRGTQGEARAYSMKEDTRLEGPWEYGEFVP
Description: as §1

[6] = test system: T6, Rep nickase domain of maize striate mosaic virus
T6 sequence (Rep 1-117, printed without the tag): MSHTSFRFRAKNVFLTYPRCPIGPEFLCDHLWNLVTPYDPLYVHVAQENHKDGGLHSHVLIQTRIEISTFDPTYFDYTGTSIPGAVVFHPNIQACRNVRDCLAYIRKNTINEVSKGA
Description: as §1

[7] = test system: T7, Rep nickase domain of porcine circovirus 2
T7 sequence (Rep 2-116, printed without the tag): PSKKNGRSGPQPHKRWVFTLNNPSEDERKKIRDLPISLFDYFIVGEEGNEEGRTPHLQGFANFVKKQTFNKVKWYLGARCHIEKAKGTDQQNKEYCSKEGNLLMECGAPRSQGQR
Description: as §1

[8] = test system: T8, Rep nickase domain of tomato golden mosaic virus
T8 sequence (Rep 1-124, printed without the tag): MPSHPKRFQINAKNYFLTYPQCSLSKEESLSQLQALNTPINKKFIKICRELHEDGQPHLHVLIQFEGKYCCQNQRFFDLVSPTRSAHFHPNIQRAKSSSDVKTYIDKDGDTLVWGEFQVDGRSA
Description: as §1

[9] = test system: T9, Rep nickase domain of tomato yellow leaf curl virus
T9 sequence (Rep 1-136, printed without the tag): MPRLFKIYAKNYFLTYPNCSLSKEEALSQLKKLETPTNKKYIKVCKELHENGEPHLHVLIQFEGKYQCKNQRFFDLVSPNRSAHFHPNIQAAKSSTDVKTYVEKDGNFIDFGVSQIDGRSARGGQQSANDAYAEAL
Description: as §1

[10] = test system: T10, Rep nickase domain of wheat dwarf virus
T10 sequence (Rep 1-137, printed without the tag): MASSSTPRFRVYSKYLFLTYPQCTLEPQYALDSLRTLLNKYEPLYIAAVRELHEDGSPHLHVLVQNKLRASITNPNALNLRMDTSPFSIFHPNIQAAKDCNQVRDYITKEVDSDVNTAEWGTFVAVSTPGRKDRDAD
Description: as §1

| Sequence | uncleaved DNA left (log2) [1] | uncleaved DNA left (log2) [2] | uncleaved DNA left (log2) [3] | uncleaved DNA left (log2) [4] | uncleaved DNA left (log2) [5] | uncleaved DNA left (log2) [6] | uncleaved DNA left (log2) [7] | uncleaved DNA left (log2) [8] | uncleaved DNA left (log2) [9] | uncleaved DNA left (log2) [10] |
| --- | --- | --- | --- | --- | --- | --- | --- | --- | --- | --- |
| TAGTAAG | 0.0572 | 0.00928 | -0.814 | -0.683 | 0.0444 | -1.23 | -0.158 | -0.0605 | -0.00926 | -0.103 |
| TCTCATG | -0.0681 | -0.166 | -0.422 | -0.886 | 0.0153 | -1.05 | -0.0132 | -0.0988 | -0.152 | -0.151 |
| GTGGTAG | 0.186 | 0.166 | 0.306 | 0.471 | 0.191 | 0.189 | 0.186 | 0.224 | 0.16 | 0.131 |
| CGGCTAG | 0.174 | 0.211 | 0.155 | 0.578 | 0.0702 | 0.897 | 0.391 | 0.187 | 0.19 | 0.108 |
| TCGGTCG | 0.0662 | -0.0235 | -0.825 | -0.41 | -0.171 | -0.921 | 0.106 | -0.0104 | -0.127 | -0.193 |
| GAACCAC | 0.0144 | -0.0287 | 0.141 | 0.0132 | 0.0171 | 0.654 | -0.246 | -0.0946 | 0.0321 | 0.116 |
| TCGCGTC | 0.0334 | -0.11 | -0.647 | -0.792 | -0.0506 | -0.964 | -0.0333 | -0.106 | -0.127 | -0.254 |
| TGTTGAC | 0.0526 | -0.133 | 0.319 | 0.491 | -0.0407 | 0.338 | 0.0165 | -0.0844 | -0.0564 | 0.0501 |
| GCACGGG | -0.0289 | -0.0968 | -0.135 | 0.25 | -0.0897 | -0.386 | 0.161 | -0.12 | -0.0693 | 0.0701 |
| AGCCTAT | -0.0419 | -0.0873 | 0.161 | 0.049 | -0.0552 | 0.307 | -0.194 | -0.0462 | 0.0256 | 0.082 |
| CATTATC | -0.0431 | -0.328 | 0.00867 | -0.386 | -0.148 | -0.809 | -0.638 | -0.105 | 0.0345 | 0.0722 |
| ATGTGGA | 0.107 | -0.00512 | -0.0281 | -0.118 | -0.0191 | -0.405 | -0.0878 | 0.0932 | 0.00986 | 0.022 |
| GCTCACC | 0.0482 | 0.0441 | 0.111 | -0.0282 | -0.0569 | 0.25 | -0.049 | 0.0578 | -0.118 | -0.0268 |
| ACCGTGC | -0.0135 | -0.0229 | -0.577 | -0.176 | -0.0433 | -0.956 | 0.166 | -0.0386 | 0.0294 | -0.083 |
| AAATCTA | -0.13 | 0.172 | -1.9 | -2.72 | 0.109 | -1.17 | -1.24 | -0.241 | 0.111 | -0.521 |
